# Measurements: ChEMBL document CHEMBL5606460, “ASAP - DENV-2 NS2B-NS3 protease fluorescence single point” (2024)
# About 110 (5.5%) of roughly 2,000 compounds showed an effect of 50% or more. The list shows a part of the results.
# Biological target: Genome polyprotein (dengue virus type 2) (UniProt P29990)
# [1] = Thailand/16681/1984, Concentration 25.0 uM, Number of replicates 1.0
structure (smiles),measurement,setting,value
O=Cc1ccc(N2CCC(C(=O)N3CCC(Oc4cnccn4)CC3)CC2)cc1,inhibition,[1],14.7%
CN(C)CCCN(CCCN(C)C)C(=O)C1CCN(c2ccc(C=O)cc2)CC1,inhibition,[1],2.41%
CCn1ccnc(N2CC[C@@H](CO)C2)c1=O,inhibition,"Thailand/16681/1984, Concentration 49.5 uM, Number of replicates 2.0, Standard deviation 0.40547257598729775 %",8.04%
same,inhibition,"Thailand/16681/1984, Concentration 99.01 uM, Number of replicates 2.0, Standard deviation 0.38043701079703857 %",15.5%
same,inhibition,"Thailand/16681/1984, Concentration 198.0 uM, Number of replicates 2.0, Standard deviation 0.16218916526483432 %",28.5%
Cc1cc(CO)c2cccc(NC(=O)CCC3CCNCC3)c2n1,inhibition,"Thailand/16681/1984, Concentration 49.95 uM, Number of replicates 2.0, Standard deviation 0.01891415691253689 %",99.7%
same,inhibition,"Thailand/16681/1984, Concentration 99.9 uM, Number of replicates 2.0, Standard deviation 0.03175377284289565 %",99.6%
CN(C)C[C@H](O)CN1CCN(C(=O)C2CCN(c3ccc(C=O)cc3)CC2)CC1,inhibition,[1],8%
CN(Cc1nc2ccccc2[nH]1)C(=O)c1cc2c(ccn2C)[nH]1,inhibition,"Thailand/16681/1984, Concentration 49.5 uM, Number of replicates 2.0, Standard deviation 1.6359874553985692 %",-0.57%
same,inhibition,"Thailand/16681/1984, Concentration 99.01 uM, Number of replicates 2.0, Standard deviation 2.1176510600017084 %",1.32%
same,inhibition,"Thailand/16681/1984, Concentration 198.0 uM, Number of replicates 2.0, Standard deviation 2.126459055917485 %",2.67%
O=Cc1ccc(N2CCC(C(=O)Nc3cnc(Br)cn3)CC2)cc1,inhibition,[1],12.3%
Cc1nn(Cc2nnc(C(C)C)o2)cc1C1CCNCC1,inhibition,"Thailand/16681/1984, Concentration 49.5 uM, Number of replicates 2.0, Standard deviation 1.2271984598057826 %",-1.09%
same,inhibition,"Thailand/16681/1984, Concentration 99.01 uM, Number of replicates 2.0, Standard deviation 0.3137269789739955 %",-1.28%
same,inhibition,"Thailand/16681/1984, Concentration 198.0 uM, Number of replicates 2.0, Standard deviation 0.585185347191749 %",-1.14%
COc1cc(Cc2cccc(OC)c2F)nc(N2CCNCC2)n1,inhibition,"Thailand/16681/1984, Concentration 49.5 uM, Number of replicates 2.0, Standard deviation 0.9629879376124778 %",-0.82%
same,inhibition,"Thailand/16681/1984, Concentration 99.01 uM, Number of replicates 2.0, Standard deviation 1.9852846675683946 %",1.04%
same,inhibition,"Thailand/16681/1984, Concentration 198.0 uM, Number of replicates 2.0, Standard deviation 1.5415090145809722 %",1.86%
O=Cc1ccc(N2CCC(C(=O)NCCc3c(F)cccc3Cl)CC2)cc1,inhibition,[1],13.3%
O=Cc1ccc(N2CCC(C(=O)Nc3cccc(C(F)(F)F)c3F)CC2)cc1,inhibition,[1],12.1%
c1ccc2c(CN3CCCCC3)c[nH]c2c1,inhibition,"Thailand/16681/1984, Concentration 49.5 uM, Number of replicates 2.0, Standard deviation 0.6434272763588318 %",-4.49%
same,inhibition,"Thailand/16681/1984, Concentration 99.01 uM, Number of replicates 2.0, Standard deviation 1.2530364272347043 %",-2.99%
same,inhibition,"Thailand/16681/1984, Concentration 198.0 uM, Number of replicates 2.0, Standard deviation 1.3117724439068803 %",-1.23%
O=Cc1ccc(N2CCC(C(=O)NCC3(c4ccccc4F)CCCC3)CC2)cc1,inhibition,[1],0.197%
NC(=O)[C@H](Cc1ccc(O)cc1)NC(=O)C1CCN(c2ccc(C=O)cc2)CC1,inhibition,[1],14%
OB(O)c1cccc(-c2noc(Cn3cnc4c3CCCC4)n2)c1,inhibition,"Thailand/16681/1984, Concentration 49.5 uM, Number of replicates 2.0, Standard deviation 17.807835519429947 %",6.31%
same,inhibition,"Thailand/16681/1984, Concentration 99.01 uM, Number of replicates 2.0, Standard deviation 4.767493705751508 %",-7.68%
same,inhibition,"Thailand/16681/1984, Concentration 198.0 uM, Number of replicates 2.0, Standard deviation 0.9544911645628179 %",-1.69%
COc1cc(Cc2ccnc(N3CCNCC3)c2)nc(N2CCNCC2)n1,inhibition,"Thailand/16681/1984, Concentration 49.5 uM, Number of replicates 2.0, Standard deviation 0.5475245881629303 %",-0.683%
same,inhibition,"Thailand/16681/1984, Concentration 99.01 uM, Number of replicates 2.0, Standard deviation 0.6079373329094152 %",-0.3%
same,inhibition,"Thailand/16681/1984, Concentration 198.0 uM, Number of replicates 2.0, Standard deviation 0.08599297366005029 %",1.2%
O=Cc1ccc(N2CCC(C(=O)NCCNC(=O)c3ccccc3Cl)CC2)cc1,inhibition,[1],13.9%
Cc1nn([C@@H](C)c2nnnn2C2CC2)cc1C1CCNCC1,inhibition,"Thailand/16681/1984, Concentration 49.5 uM, Number of replicates 2.0, Standard deviation 0.5100215426412393 %",-0.77%
same,inhibition,"Thailand/16681/1984, Concentration 99.01 uM, Number of replicates 2.0, Standard deviation 0.6373004179667614 %",-0.407%
same,inhibition,"Thailand/16681/1984, Concentration 198.0 uM, Number of replicates 2.0, Standard deviation 0.7686558471157346 %",0.423%
Cn1nccc1C1CCN(Cc2c[nH]c3ccccc23)CC1,inhibition,"Thailand/16681/1984, Concentration 49.5 uM, Number of replicates 2.0, Standard deviation 0.06061551323467077 %",0.129%
same,inhibition,"Thailand/16681/1984, Concentration 99.01 uM, Number of replicates 2.0, Standard deviation 0.20163937411430433 %",1.16%
same,inhibition,"Thailand/16681/1984, Concentration 198.0 uM, Number of replicates 2.0, Standard deviation 0.8816052707337766 %",1.64%
COc1cccc(CCNC(=O)C2CCN(c3ccc(C=O)cc3)CC2)c1,inhibition,[1],0.237%
Cc1cccc(OC2CN(C(=O)C3CCN(c4ccc(C=O)cc4)CC3)C2)c1,inhibition,[1],13.8%
CC1(C)C[C@@](C)(CNC(=O)c2cnc[nH]2)CN1C(=O)c1ccc2[nH]nnc2c1,inhibition,"Thailand/16681/1984, Concentration 49.5 uM, Number of replicates 2.0, Standard deviation 1.241999136987217 %",-0.502%
same,inhibition,"Thailand/16681/1984, Concentration 99.01 uM, Number of replicates 2.0, Standard deviation 2.0572991963778975 %",-1.12%
same,inhibition,"Thailand/16681/1984, Concentration 198.0 uM, Number of replicates 2.0, Standard deviation 0.660730470085805 %",-0.351%
O=Cc1ccc(N2CCC(C(=O)N(Cc3ccncc3)C[C@H]3CCCO3)CC2)cc1,inhibition,[1],13%
